About 260 (0.074%) of roughly 350,000 compounds were called active. Inconclusive means that the source gave no clear call. Such entries were picked first, then a sample of the others. Calls follow the shape of the dose curve; as a rule, active = well fitted inhibition curve with a large enough effect; inconclusive = small, poorly fitted or top-dose-only effect; inactive = no such curve, though single readings can be large or run the other way. Potencies of inconclusive entries are doubtful fits and often do not repeat.
biological target: Ferritin light chain (Equus caballus) (UniProt P02791); assay: qHTS Assay for Identification of Novel General Anesthetics; details: apoferritin/1-aminoanthracene competitive binding, fluorescence; series mostly up to 77.5 µM; also: nearly all actives have a fitted effect of over 20% in size
Outline: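 Apoferritin-based anesthetic binding model; compound displacement of fluorescent 1-AMA measured as endpoint fluorescence after 10 minutes at room temperature, scaled to free-ligand and complex controls.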
Potency is read from the fitted curve at half-maximal effect; tags tell the direction and shape of the fitted curve.

Chain of UniProt P02791 (P02791 whole entry, looked up): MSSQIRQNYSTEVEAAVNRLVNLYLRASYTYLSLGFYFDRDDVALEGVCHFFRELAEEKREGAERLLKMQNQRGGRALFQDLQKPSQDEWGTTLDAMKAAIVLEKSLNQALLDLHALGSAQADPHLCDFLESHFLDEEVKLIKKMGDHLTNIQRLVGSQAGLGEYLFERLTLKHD

Potency, inconclusive:
COc1ccc(-c2ccc(=O)n(Cc3c(F)cccc3Cl)n2)cc1 50.1 µM [inhibitor, single point]
O=C(/C=C/c1ccco1)N1CCC(Cc2ccccc2)CC1 39.8 µM [inhibitor, partial curve]
Cc1ccc(NC(=O)Cn2nc(C)c3ccccc3c2=O)cc1F 35.5 µM [inhibitor, partial curve]
COc1c(C)cc(C(=O)C2CCCN(C(=O)c3cccc(F)c3)C2)cc1C (centres undefined) 39.8 µM [inhibitor, single point]
Cc1ccc(NC(=O)COC(=O)CC2CCCC2)cc1Cl 12.6 µM [inhibitor, partial curve]
COc1ccc(-c2nnc3n2N=C(c2cc(OC)ccc2OC)CS3)cc1 44.7 µM [inhibitor, single point]
NS(=O)(=O)c1ccc(NC(=S)Nc2ccc(Br)c(Cl)c2)cc1 20 µM [inhibitor, partial curve]
COc1ccc(CNC(=O)COc2ccc(S(=O)(=O)N3CCCCC3)cc2)cc1 50.1 µM [inhibitor, single point]
CCOc1ccc(-c2cnc(NCc3cccc(Cl)c3)n2C)cc1 25.1 µM [inhibitor, partial curve]
Cc1ccc(Nc2ccccc2)cc1 31.6 µM [inhibitor, single point]
Cc1cc(C)cc(NC(=O)COC(=O)c2n[nH]c3ccccc23)c1 35.5 µM [inhibitor, single point]
O=C1CSC(c2ccccc2F)N1c1cc(Cl)ccc1O (centres undefined) 25.1 µM [inhibitor, partial curve]
CCOc1ccc(CNC(=O)c2sc3nc(C)cc(C)c3c2-n2cccc2)cc1 2.51 µM [inhibitor, full curve, poor fit]
COc1ccc(OCc2cc(/C=N\NC(=O)c3ccccc3)ccc2OC)cc1 25.1 µM [inhibitor, partial curve]
O=C(CCc1nnc(CCCc2ccccc2)o1)NCCCC1CCCC1 28.2 µM [inhibitor, single point]
CC(=O)c1ccc(NC(=O)/C(=C\c2ccccc2)NC(=O)/C=C/c2ccccc2)cc1 14.1 µM [inhibitor, partial curve]
Cc1ccc2nc(SCC(=O)Nc3ccc(F)c([N+](=O)[O-])c3)[nH]c2c1 50.1 µM [inhibitor, single point]
O=C1C2C(C(=O)N1Cc1ccco1)C1C=CC2C12CC2 (centres undefined) 10 µM [inhibitor, partial curve]
O=C(Nc1ccccc1Cl)C1(c2ccccc2)CC1(Cl)Cl (centres undefined) 50.1 µM [inhibitor, single point]
CC(C)(C)c1ccc(OCCC(=O)Nc2cccc(S(=O)(=O)N3CCCCC3)c2)cc1 35.5 µM [inhibitor, single point]
O=C(Nc1ccc2c(c1)OCCO2)C(=S)NCc1ccccc1 17.8 µM [inhibitor, partial curve]
CC(C)CCNc1c(-c2cccs2)nc2ccccn12 39.8 µM [inhibitor, partial curve]
O=C(Cc1ccccc1)NNc1c2ccccc2nc2ccccc12 35.5 µM [inhibitor, partial curve]
COc1ccccc1Nc1ccc([N+](=O)[O-])cc1N 39.8 µM [inhibitor, single point]
COc1ccc(Cc2nc(C(=O)Nc3ccc(OC)cc3)cs2)cc1 14.1 µM [inhibitor, partial curve]
O=[N+]([O-])c1ccc(Sc2nnnn2-c2ccccc2)c(Cl)c1 35.5 µM [inhibitor, partial curve]
O=C(CC12CC3CC(CC(C3)C1)C2)Nc1c(F)cccc1F 17.8 µM [inhibitor, partial curve]
COc1cc(CNc2nc(C)c([N+](=O)[O-])c(C)c2C#N)cc(OC)c1 20 µM [inhibitor, partial curve, poor fit]
CN(C)CCCN(C(=O)c1ccco1)c1nc(-c2ccc(Cl)cc2)cs1 12.6 µM [inhibitor, partial curve]
CC(=O)c1ccc(OCc2cccc(C(F)(F)F)c2)cc1O 25.1 µM [inhibitor, partial curve]
CCOc1cc(/C=N/NC(N)=O)cc(Br)c1OCC(=O)Nc1ccccc1C 44.7 µM [inhibitor, single point]
Cc1ccc(OCc2cc(C(=O)N3CCCCCCC3)no2)cc1C 50.1 µM [inhibitor, single point]
CCC(NC(=O)Nc1nnc(C(F)(F)F)s1)(C(F)(F)F)C(F)(F)F 17.8 µM [inhibitor, partial curve]
NC(=O)COC(=O)CC1CC2CCC1C2 (centres undefined) 44.7 µM [inhibitor, single point]
c1ccc(CSc2nnnn2-c2ccccc2)cc1 15.8 µM [inhibitor, partial curve]
Cc1nc2c(sc3nc4c(cc32)COC(C)(C)C4)c(=O)n1Cc1ccccc1 1.41 µM [inhibitor, partial curve]
CC(=O)Nc1nonc1-c1nnc(SCC(=O)Nc2cc(C)ccc2C)n1-c1ccccc1 15.8 µM [inhibitor, partial curve]
CCOC(=O)C(CC)n1cnc2c(nnn2-c2ccc(C)cc2)c1=O (centres undefined) 28.2 µM [inhibitor, partial curve]
O=C1CCCC2CCCCN12 (centres undefined) 79.4 µM [inhibitor, single point]
NC(=O)C1CC=CCC1C(=O)OCC(Cl)=C(Cl)Cl (centres undefined) 44.7 µM [inhibitor, single point]
O=C1CC(=C(c2ccccc2)c2ccccc2)C(=O)N1CCCCN1CCN(c2ccccc2)CC1 25.1 µM [inhibitor, partial curve]
O=C(Nc1cccc(C(F)(F)F)c1)c1csc(-c2ccncc2)n1 35.5 µM [inhibitor, single point]
Cc1ccc(N(C)S(=O)(=O)c2cccc(C(=O)NC3=NCCS3)c2)cc1 28.2 µM [inhibitor, partial curve]
Cc1ccccc1C(=O)Oc1ccc(Sc2ccc(O)cc2)cc1 22.4 µM [inhibitor, partial curve]
c1ccc(CNn2nnnc2-c2ccccc2)cc1 22.4 µM [inhibitor, partial curve]
Cc1cc(OCC(=O)c2ccc(Br)cc2)ccc1N1C(=O)CCC1=O 39.8 µM [inhibitor, partial curve, poor fit]
CCc1ccc(NS(=O)(=O)c2ccc3[nH]cc(C(=O)NC4CCCC4)c(=O)c3c2)cc1 4.47 µM [inhibitor, full curve]
Cc1ccc([N+](=O)[O-])cc1NC(=O)c1ccc(C(C)(C)C)cc1 10 µM [inhibitor, full curve]
COc1ccc(NC(=O)Nc2ccc3c(c2)CCC3)c(OC)c1 0.794 µM [inhibitor, full curve, poor fit]
N/C(Cc1ccc(Cl)cc1)=N\OC(=O)c1ccc2ccccc2c1 10 µM [inhibitor, partial curve]
O=C(Nc1ccc(Cl)cc1)c1ccc2c(=O)n3c(nc2c1)CCCCC3 11.2 µM [inhibitor, partial curve]
CCC(C)c1ccc(OCC(=O)Nc2ccc(CN3CCOCC3)cc2)cc1 (centres undefined) 35.5 µM [inhibitor, partial curve]
CC(=O)N(Cc1cc(=O)[nH]c2ccccc12)c1cccc(C)c1 35.5 µM [inhibitor, partial curve]

Potency, inactive:
O=C(OCC1OC(OC(=O)c2cc(O)c(O)c(OC(=O)c3cc(O)c(O)c(O)c3)c2)[C@@H](OC(=O)c2cc(O)c(O)c(OC(=O)c3cc(O)c(O)c(O)c3)c2)C(OC(=O)c2cc(O)c(O)c(OC(=O)c3cc(O)c(O)c(O)c3)c2)C1OC(=O)c1cc(O)c(O)c(OC(=O)c2cc(O)c(O)c(O)c2)c1)c1cc(O)c(O)c(OC(=O)c2cc(O)c(O)c(O)c2)c1 (some centres undefined)
O=C(Nc1ccc2c(c1)OCCO2)c1cnc2n(c1=O)CCS2
Cc1cc(C)cc(-n2nnc(C(=O)NCc3ccco3)c2N)c1
COc1ccc(C(=S)N2CCOCC2)cc1OC(=O)c1ccccc1Cl
COc1ccc(C(c2c(O)cc(C)n(Cc3ccco3)c2=O)N2CCN(c3ccccc3)CC2)cc1 (centres undefined)
Cc1ccccc1-n1nc(CO)c(C(=O)NCCc2ccccc2)n1
O=C1c2ccccc2C(=O)c2c1ccc(O)c2O
CCOc1ccc(C(=O)Nc2ccc(S(=O)(=O)N(Cc3ccccc3)c3ccccc3)cc2)cc1
COc1ccc(Cn2nnnc2CN(Cc2cc3cccc(C)c3[nH]c2=O)C2CCCC2)cc1
CCOC(=O)c1cccc(NC(=O)c2cc3c(Cl)nc4ccc(C)cc4c3s2)c1
CCc1ccc(CNC(=O)c2ccc3c(c2)nc2n3CCOC2)cc1
